This note sets out measurements from patent US20260216242A1 (ALMAC DISCOVERY, published 2026).

As usually defined, the koff is a measure of how fast the partners let go of each other. By kon is commonly meant the second-order rate constant of association.

For assay [1], the target named is T1, human ALPP on CHO cells (human, UniProt P05187 23-506).
T1 construct: whole, on cells; also called CHO-ALPP
The experiment in a line: flow cytometry, CHO cells, KDapp. Here is the method: (§1) Cell surface binding of test agents to hALPP isoforms was characterized in four CHO-ALPP isoform transfectant cell lines (CHO-ALPP, CHO-ALPPL2, CHO-ALPI and CHO-ALPL) and the resulting KDapp values determined. Adherent cells were detached from tissue culture flasks by incubating with 0.1% EDTA/PBS solution at 37° C. for ~10 minutes or until cells detached easily. Cells were re-suspended in ice-cold PBS/2% FCS in 15 ml tubes and centrifuged at 1700 rpm for 5 mins at 4° C. Supernatant was removed and the cell pellet re-suspended in PBS/2% FCS. […] Cells were incubated with 100 μl of test agents at a range of concentrations, plus controls for 1 hr on ice. The sample plate was centrifuged at 1700 rpm for 5 mins at 4° C. The supernatant was removed, and a wash performed by re-suspending the cell pellets in 0.25 mL of ice-cold PBS/2% FCS using a multichannel pipette. Samples were again centrifuged at 1700 rpm for 5 min at 4° C. Supernatant was removed and two further washes performed as described. After the final wash and centrifugation step, excess liquid was removed by blotting the plate on tissue paper. Binding of VHH-hFc agents was determined by adding 100 μl of Fitc-anti-human Ab (ThermoFisher) and incubating for 30 mins on ice in the dark. Wash steps were performed as described previously. All cell pellets were finally re-suspended in 0.28 ml of ice-cold PBS/2% FCS and left on ice in the dark prior to analysis on a Merck-Millipore Guava EasyCyte HT or Thermo Fisher Attune N×T flow cytometer.

The target in assay [2] is T2, human ALPPL2 on CHO cells (human, UniProt P10696 20-503).
T2 construct: whole, on cells; also called CHO-ALPPL2
Briefly: flow cytometry, CHO cells, KDapp. Here is the method:
as §1
For orientation: A flow cytometer gives signals particle by particle.

In assay [3] the target is T3, human ALPL on CHO cells (human, UniProt P05186 18-501).
T3 construct: whole, on cells; also called CHO-ALPL
T3 sequence (looked up): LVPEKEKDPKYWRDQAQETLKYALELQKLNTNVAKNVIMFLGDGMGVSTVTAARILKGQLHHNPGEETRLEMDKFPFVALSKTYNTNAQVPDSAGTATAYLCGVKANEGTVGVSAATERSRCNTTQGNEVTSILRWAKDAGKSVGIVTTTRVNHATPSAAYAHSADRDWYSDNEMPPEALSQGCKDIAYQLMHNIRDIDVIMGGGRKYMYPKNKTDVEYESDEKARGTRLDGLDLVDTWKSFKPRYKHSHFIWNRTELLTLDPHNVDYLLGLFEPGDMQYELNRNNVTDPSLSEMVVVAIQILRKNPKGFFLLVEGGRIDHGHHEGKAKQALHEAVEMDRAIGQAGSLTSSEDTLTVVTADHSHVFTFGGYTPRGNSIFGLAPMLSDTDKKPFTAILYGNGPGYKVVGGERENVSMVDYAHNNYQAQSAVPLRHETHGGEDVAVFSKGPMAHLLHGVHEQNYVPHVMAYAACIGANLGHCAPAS
Briefly: flow cytometry, CHO cells stably expressing human ALPL; VHH-hFc detected with FITC anti-human Ab. The protocol: VHH-hFc proteins were assessed for human ALPP, ALPPL2, ALPI and ALPL cell-surface binding by flow cytometry. Binders were screened on CHO cells stably expressing human ALPP, ALPPL2, ALPI or ALPL.
as §1

The target in assay [4] is T4, Human ALPP (leucine zipper) (human).
T4 construct: Whole entry: ALPP fused with a cysteine stabilised leucine zipper and His tag; also called hALPP
T4 chain: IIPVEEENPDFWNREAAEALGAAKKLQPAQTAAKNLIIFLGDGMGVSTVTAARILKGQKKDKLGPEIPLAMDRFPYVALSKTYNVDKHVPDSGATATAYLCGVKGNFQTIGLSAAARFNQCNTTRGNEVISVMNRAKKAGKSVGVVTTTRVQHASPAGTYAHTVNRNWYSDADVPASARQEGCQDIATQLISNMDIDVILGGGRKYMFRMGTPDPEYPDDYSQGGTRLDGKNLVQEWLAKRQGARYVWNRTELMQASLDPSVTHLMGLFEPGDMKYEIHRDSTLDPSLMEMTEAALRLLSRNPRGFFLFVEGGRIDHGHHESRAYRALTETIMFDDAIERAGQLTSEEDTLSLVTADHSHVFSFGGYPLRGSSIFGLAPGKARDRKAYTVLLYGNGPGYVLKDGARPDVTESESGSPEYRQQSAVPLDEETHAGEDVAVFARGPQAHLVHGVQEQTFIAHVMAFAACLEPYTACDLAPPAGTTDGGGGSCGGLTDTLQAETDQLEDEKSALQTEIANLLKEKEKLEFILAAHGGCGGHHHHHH
Briefly: BLI, antigen immobilised, KD apparent. The protocol: (§2) Binding kinetics were determined using the Biolayer Interferometry (BLI) Octet K2 or R4 system (Sartorius). […] For KD apparent measurements, the ALPP proteins were immobilised in sodium acetate pH5 buffer to AR2G sensors using amine coupling. To measure 1:1 interactions, AHC biosensors were used to immobilise Fc-fused proteins. All assays were conducted in HBS-EP with a plate temperature of 25° C. Ka (M⁻¹s⁻¹), Kd (s⁻¹) and KD (nM) values were determined using Octet Data Analysis High Throughput software (Sartorius) for Biolayer Interferometry.

Assay [5] concerns the target T5, Human ALPPL2 (leucine zipper) (human).
T5 construct: Whole entry: fused with a cysteine stabilised leucine zipper and His tag; also called hALPPL2
T5 chain: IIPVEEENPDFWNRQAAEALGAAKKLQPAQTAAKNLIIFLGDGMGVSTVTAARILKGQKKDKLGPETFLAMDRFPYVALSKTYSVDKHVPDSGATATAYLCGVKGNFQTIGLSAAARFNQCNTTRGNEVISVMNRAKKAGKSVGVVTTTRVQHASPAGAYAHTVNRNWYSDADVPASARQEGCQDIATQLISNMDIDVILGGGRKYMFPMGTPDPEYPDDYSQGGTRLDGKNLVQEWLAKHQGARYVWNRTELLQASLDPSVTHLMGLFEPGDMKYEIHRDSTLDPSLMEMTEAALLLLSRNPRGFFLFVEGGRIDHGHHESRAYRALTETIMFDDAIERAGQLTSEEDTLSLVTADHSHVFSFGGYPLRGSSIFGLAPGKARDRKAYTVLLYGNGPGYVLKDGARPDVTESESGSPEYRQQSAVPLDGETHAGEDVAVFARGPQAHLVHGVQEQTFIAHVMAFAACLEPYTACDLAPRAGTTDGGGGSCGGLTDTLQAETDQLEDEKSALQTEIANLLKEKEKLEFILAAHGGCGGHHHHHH
Briefly: BLI, antigen immobilised, KD apparent. The protocol: as §2
(BLI is a label-free optical method that tracks binding on a fibre tip over time.)

Assay [6] concerns the target T6, Human ALPL (leucine zipper) (human).
T6 construct: Whole entry: fused with a cysteine stabilised leucine zipper and His tag; also called hALPL
T6 chain: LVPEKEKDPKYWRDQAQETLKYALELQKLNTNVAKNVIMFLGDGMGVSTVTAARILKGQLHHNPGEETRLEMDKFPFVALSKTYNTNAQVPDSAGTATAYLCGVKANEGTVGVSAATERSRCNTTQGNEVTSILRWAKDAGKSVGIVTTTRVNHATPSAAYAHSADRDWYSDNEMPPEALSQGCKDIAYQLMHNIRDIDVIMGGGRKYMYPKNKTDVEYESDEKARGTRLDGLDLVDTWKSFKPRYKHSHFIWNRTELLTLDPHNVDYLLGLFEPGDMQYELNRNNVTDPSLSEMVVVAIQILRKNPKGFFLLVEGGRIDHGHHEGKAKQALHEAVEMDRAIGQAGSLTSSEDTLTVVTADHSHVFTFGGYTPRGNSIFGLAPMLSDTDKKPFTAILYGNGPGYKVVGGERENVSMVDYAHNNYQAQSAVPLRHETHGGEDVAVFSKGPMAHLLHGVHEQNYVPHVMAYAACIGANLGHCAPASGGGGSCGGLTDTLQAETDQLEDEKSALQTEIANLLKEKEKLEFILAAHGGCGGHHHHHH
The experiment in a line: BLI, antigen immobilised. Here is the method: as §2

For assay [7], the target named is T7, ALPI His homodimer (human, UniProt P09923 20-503).
T7 construct: Whole entry with His tag; used in ELISA and BLI; also called hALPI
T7 sequence: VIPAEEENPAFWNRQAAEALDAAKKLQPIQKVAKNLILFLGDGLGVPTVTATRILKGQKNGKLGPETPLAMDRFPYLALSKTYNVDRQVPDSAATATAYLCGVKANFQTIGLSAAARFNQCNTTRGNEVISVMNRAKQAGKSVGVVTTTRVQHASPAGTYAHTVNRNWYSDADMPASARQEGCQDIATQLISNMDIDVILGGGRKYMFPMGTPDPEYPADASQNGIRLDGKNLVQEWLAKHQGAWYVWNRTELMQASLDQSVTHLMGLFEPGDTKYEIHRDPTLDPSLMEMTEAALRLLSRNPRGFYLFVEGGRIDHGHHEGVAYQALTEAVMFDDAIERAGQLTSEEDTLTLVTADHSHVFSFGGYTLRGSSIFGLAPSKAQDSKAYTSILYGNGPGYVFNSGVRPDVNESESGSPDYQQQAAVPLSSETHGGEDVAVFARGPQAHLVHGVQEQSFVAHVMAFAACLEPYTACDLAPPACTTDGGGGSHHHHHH
The experiment in a line: BLI, antigen immobilised. Here is the method:
as §2

The target in assay [8] is T8, Rhesus monkey ALPP (leucine zipper) (rhesus monkey).
T8 construct: Whole entry: cysteine-stabilised leucine zipper fusion; also called rmALPP; NCBI #XP_028687061
T8 chain: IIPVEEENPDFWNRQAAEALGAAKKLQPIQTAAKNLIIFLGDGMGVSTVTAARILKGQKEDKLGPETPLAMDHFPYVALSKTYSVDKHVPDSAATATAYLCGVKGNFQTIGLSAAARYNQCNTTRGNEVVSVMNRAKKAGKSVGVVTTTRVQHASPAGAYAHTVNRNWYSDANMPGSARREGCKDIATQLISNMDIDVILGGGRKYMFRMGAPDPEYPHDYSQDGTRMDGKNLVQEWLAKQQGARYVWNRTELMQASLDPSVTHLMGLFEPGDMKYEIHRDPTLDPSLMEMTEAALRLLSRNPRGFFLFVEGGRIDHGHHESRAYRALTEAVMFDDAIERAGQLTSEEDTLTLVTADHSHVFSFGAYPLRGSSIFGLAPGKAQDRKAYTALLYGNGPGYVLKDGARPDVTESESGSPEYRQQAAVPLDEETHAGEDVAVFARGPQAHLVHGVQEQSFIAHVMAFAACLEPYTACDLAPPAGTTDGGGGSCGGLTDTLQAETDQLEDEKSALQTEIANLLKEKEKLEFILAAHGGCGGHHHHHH
The experiment in a line: BLI, antigen immobilised, KD apparent. Here is the method:
as §2
To assess cross-species reactivity of the ALPP/ALPPL2 targeting VHH-hFc fusions, BLI was conducted using mouse ALPPL2 (NCBI #NP_031459), rhesus monkey ALPP (NCBI #XP_028687061) and cynomolgus monkey ALPP (NCBI #XP_045223825). […] BLI was conducted as described above.

B1: D10 (G4S)1 hFc (S239C) (Fc fusion)
chain: QVQLVESGGGLVQPGGSLRLSCAASGSIFSVNTMGWYRQAPGKQRDLVAVATSGGTIHYADSVKGRFTISRDNAKNTVYLQMNSLKPEDTAVYYCNLVVPYGMIAGDHDYWGQGTKVTVSSGGGGS[human IgG1 Fc with changes not spelt out]
notes: Short linker; also called D10-hFc (S239C) [G4S]1; #373
Regarding B1, the Kd stood at 2.7 nM in assay [1] and 6.2 nM in assay [2]. Also, the binding result in assay [3] is recorded as “no binding (tested: 350 nM)”.

B2: A05-hFc (S239C) (Fc fusion)
chain: QVQLVESGGGLVQAGASLTLSCAASGFTFNTRSIVWFRQAPGKEREAVSCISKVAGSTYYGDSVQGRFSSSTDNAKNTVSLQMNSLKPEDTAVYTCAASFAPNCYGWSVAANMEYWGEGTMVTVSSGGGGSGGGGSGGGGS[human IgG1 Fc with changes not spelt out]
notes: VHH-[G4S]3-human IgG1 Fc S239C; built from parts; also called #433
On to B2, for which the Kd in assay [4], in assay [5] and in assay [8] was < 0.01 nM each time. Also, the koff in assay [4], in assay [5] and in assay [8] was < 1e-07 s⁻¹ in each case. Besides, the kon in assay [4] was 304000 M⁻¹ s⁻¹; in assay [5], 526000 M⁻¹ s⁻¹; in assay [8], 562000 M⁻¹ s⁻¹. In addition, the binding result in assay [6] and in assay [7] was “no binding” in each case.
